Laboratory results reported in the supplement of paper PMC10126150.
Values marked as one replicate rest on one cluster of the flow cell; about a third of the high ones do not repeat.

test system: ATP; test: switch fluorescence ratio, 500 uM ATP over buffer (Cy3 cluster intensity, sum of 5 cycles each) (fold (ratio)); higher = stronger signal-on switching upon ATP binding; sequences stand for … in TCGTCGGCAGCGTCAGATGTGTATAAGAGACAGTTTTTTTTTTTTTTTTTTTTTTTTT…TC; settings: aptamer strand: ATP DNA aptamer (quencher-CACCTGGGGGAGTATTGCGGAGGAAGG + anchor), 100 nM annealed; ATP concentration: 500 uM; one replicate
How it was run: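 The quencher-labelled ATP aptamer, at 100 nM, was annealed to Cy3-labelled switching-strand clusters on a modified Illumina MiSeq flow-cell. The clusters were imaged in selection buffer, then after 15 min with 500 uM ATP at 22 °C, and this buffer/ATP cycle ran five times with NaOH stripping and re-annealing between runs. Per-cluster fluorescence ratios, summed target-cycle over summed buffer-cycle Cy3 intensity, were averaged per switch-domain sequence. Clusters outside 100-1000 RFU were excluded.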
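Further: ATP exposure 15 min at 22 °C before imaging.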

| Sequence | switch fluorescence ratio |
| --- | --- |
| TTTTCTCAAT | 1 |
| TTTTCTGACA | 1 |
| TTTTGAAAGC | 0.963 |
| TTTTGAACTT | 1.09 |
| TTTTGAGAT | 1.03 |
| TTTTGATG | 1.04 |
| TTTTGCGGCT | 1.1 |
| TTTTGCGTAA | 0.994 |
| TTTTGCTAGA | 1.01 |
| TTTTGCTATC | 1.33 |
| TTTTGCTCGC | 1.05 |
| TTTTGGAGG | 0.919 |
| TTTTGGGAC | 1.03 |
| TTTTGGGCCG | 1.02 |
| TTTTGGTCT | 0.972 |
| TTTTGTAGCC | 1.03 |
| TTTTGTCCTC | 1.02 |
| TTTTGTCGGG | 0.979 |
| TTTTGTCTGG | 1.06 |
| TTTTGTTCAA | 0.949 |
| TTTTGTTCTG | 1.08 |
| TTTTTAGATG | 0.991 |
| TTTTTAGTGA | 0.954 |
| TTTTTATG | 1.02 |
| TTTTTCACCT | 0.986 |
| TTTTTCGAC | 1.02 |
| TTTTTGCCG | 1.06 |
| TTTTTGTGC | 0.991 |
| TTTTTTTCG | 0.976 |
